“And” between values parts separate entries of the source, which are not always exact repeats. Equal entries are not always repeated. About 230 (0.21%) of roughly 110,000 compounds showed an effect of 50% or more. This is one part of the list.
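Also: 30 min substrate incubation versus DMSO and 10 µM JCP410 controls.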

DPAP1, sequence (Q8IIJ9 whole entry, looked up): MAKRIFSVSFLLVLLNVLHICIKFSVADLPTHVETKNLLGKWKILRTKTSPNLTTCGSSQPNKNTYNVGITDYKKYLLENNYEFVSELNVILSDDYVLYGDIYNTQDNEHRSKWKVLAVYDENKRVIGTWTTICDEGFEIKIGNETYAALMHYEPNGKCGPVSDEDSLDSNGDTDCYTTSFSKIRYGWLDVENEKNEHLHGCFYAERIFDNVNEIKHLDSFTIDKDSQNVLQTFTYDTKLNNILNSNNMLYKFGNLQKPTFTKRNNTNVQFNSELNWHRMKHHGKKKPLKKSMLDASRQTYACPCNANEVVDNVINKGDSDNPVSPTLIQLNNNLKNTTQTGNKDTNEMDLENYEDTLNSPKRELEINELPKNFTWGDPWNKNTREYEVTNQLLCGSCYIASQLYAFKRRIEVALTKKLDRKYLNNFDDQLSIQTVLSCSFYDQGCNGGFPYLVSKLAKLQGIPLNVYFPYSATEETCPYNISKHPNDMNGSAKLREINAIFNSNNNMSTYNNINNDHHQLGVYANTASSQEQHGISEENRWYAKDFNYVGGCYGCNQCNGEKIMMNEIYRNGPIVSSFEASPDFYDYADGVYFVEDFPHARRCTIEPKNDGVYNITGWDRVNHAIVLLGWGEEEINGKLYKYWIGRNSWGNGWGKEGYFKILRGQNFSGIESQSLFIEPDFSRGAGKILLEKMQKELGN

This experiment concerns the target DPAP1 (Plasmodium falciparum, UniProt Q8IIJ9). In words: primary screen, percent inhibition; read by cleavage of a fluorogenic dipeptide substrate; higher = more effect of the substance. Also on record: species or system P. falciparum D10 trophozoite lysates; single well.
Take `Oc1ccc(CN2CCSCC2)cc1`: the “% Inhibition @ 10 uM” value was -2.92%.
Next, `CCOC(=O)c1cc2c(=O)n3ccccc3nc2n(C(C)C)/c1=N/C(=O)c1ccncc1`: -5.57%.
In the case of `CCCCNC(=O)CN(c1ccc(Cl)cc1Cl)S(=O)(=O)c1ccccc1` it was 1.39%.
`COc1ccccc1-c1nn2c(Cn3cnc4ccccc43)nnc2s1`: the “% Inhibition @ 10 uM” value was 7.5%.
In the case of `O=C(CSc1c2c(nc3ccccc13)CCCC2)N1CCCC1` it was -3.23%; in that of `Cc1ccc(CSc2nc3cccnc3n2CC(=O)N(C)C2CCCCC2)cc1`, 0.693%.
Take `CCCNc1cc(-c2ccccc2)ncn1`: the “% Inhibition @ 10 uM” value is -4.49%.
In the case of `Cc1cc(C)c(C)c(S(=O)(=O)NCC(=O)N2CCCC2)c1C` it was -3.37%; in that of `Cc1ccc2nc(Cl)c3cc(C(=O)NC(C)C)sc3c2c1`, -1.7%.
With `O=C(O)c1ccccc1C(=O)OCCN1CCOCC1`, the “% Inhibition @ 10 uM” value is -0.357%.
Next, `COC(=O)c1ccc(C2c3c(oc4ccc(F)cc4c3=O)C(=O)N2Cc2ccc3c(c2)OCO3)cc1` (centres unmarked): 0.415%; `CCOc1ccc(-c2cc(C(=O)O)c3c(-c4ccccc4)[nH]nc3n2)cc1OC`: 4.59%; `COc1ccc(C2C(C(=O)c3cccs3)=C(O)C(=O)N2CCCN(C)C)c(OC)c1` (centres unmarked): 0.487%.
Regarding `O=C(Nc1ccccc1C(=O)N1CCCC1)c1cccc(F)c1`, the “% Inhibition @ 10 uM” value is reported as -3.5%.
Next, `Cc1ccc(CNC(=O)CSc2nnc(C)c3c(C)n(-c4ccccc4)nc23)o1`: -4.18%; `CC(=O)N1CCN(C(=O)N[C@@H](CC(C)C)C(=O)NCC#N)CC1`: 2.87%; `COc1cccc(/C=C2/SC(=O)N(CC(=O)N3CCOCC3)C2=O)c1OC`: -8.36%.
Next, `CS(=O)(=O)N(CC(=O)Nc1ccc(Oc2ccccc2)cc1)c1ccccc1F`: -5.06%; `Cc1c(CNCC(C)c2ccccc2)c(C(=O)O)c(C)n1Cc1ccc(F)cc1Cl` (centres unmarked): -5.49%; `Oc1ccc(-c2csc(Nc3cccnc3)n2)cc1`: -3.5%.
Next, `OCCn1c(-c2ccccc2)cn2c3ccccc3nc12`: 1.13%.
For `CCOC(=O)N1CCN(C(=O)C2c3ccccc3C(=O)N(CC(C)C)C2c2cccs2)CC1` (centres unmarked), the “% Inhibition @ 10 uM” value is recorded as 1.69%.
Next, `CCn1c2ccccc2c2cc(CN3CCN(c4ccccc4)CC3)ccc21`: -3.77%.
Next, `O=C(/C(=C(\O)c1ccccc1)[n+]1ccc2ccccc2c1)c1ccccc1`: 0.658%; `CC1CCN(S(=O)(=O)c2cc(C(=O)O)ccc2Cl)CC1`: 0.177%.
For the compound `CC(=O)N(CN1C(=O)C2CC=CCC2C1=O)c1cccc(Cl)c1` (centres unmarked), the “% Inhibition @ 10 uM” value was determined as 0.751%.
On to `CCN1CCC(N(Cc2cccc(OC)c2)C(=O)NC23CC4CC(CC(C4)C2)C3)CC1`, for which the “% Inhibition @ 10 uM” value came to 3.7%.
Next, `COc1cccc(/C=C2\CCCC3=C2OC(N)=C(C#N)C3c2cccc(OC)c2)c1` (centres unmarked): -4.68%; `O=C(CN1C(=O)c2ccccc2C1=O)Nc1ccc(Br)cc1`: 5.04%.
In the case of `COc1cccc(NC(=O)c2ccc(Br)cc2)c1` it was -3.26%; in that of `CC(CNC(=O)c1ccc(Cl)cc1)NC(=O)c1ccc(Cl)cc1` (centres unmarked), -3.21%.
Next, `CCC(C)NC(=O)c1cn(CC)c(=O)c2cc(OC)c(OC)cc12` (centres unmarked): -2.49%.
With `Cc1ccc(-c2c(C(=O)NCC3COc4ccccc4O3)oc(=O)c3ccccc23)cc1` (centres unmarked), the “% Inhibition @ 10 uM” value was determined as 5.1%.
In the case of `CCCNc1nc(OC)nc(OC)n1` it was -4.05%; in that of `Cc1ccc(C(=O)C2=C(O)C(=O)N(c3nccs3)C2c2ccc(C)cc2)cc1` (centres unmarked), 1.61%; in that of `COC(=O)c1ccc(C(=O)Nc2nc3ccc(OC)cc3s2)cc1`, 5.98%.
Next, `CC12CCC(C/C1=N\OC(=O)c1ccc(F)cc1)C2(C)C` (centres unmarked): -1.47%; `Cc1cccc(NC(=O)COc2ccc(C)cc2C)c1`: -2.32%; `COC(=O)c1c(NC(=O)/C=C/c2ccc(OC)c(Br)c2)sc2c1CCCC2`: 17.4%.
In the case of `COC(=O)c1ccccc1NC(=O)c1ccccc1Br`, the “% Inhibition @ 10 uM” value is recorded as -3.04%.
Next, `COC(=O)CCS(=O)(=O)c1ccc(C)c(C)c1`: -1.77%; `CCSc1nnc(NC(=O)Cc2csc(C)n2)s1`: 2.04%; `Cc1cc(C)c(S(=O)(=O)NC2CCCCC2)cc1S(=O)(=O)NC1CCCCC1`: 10.6%.
Next, `Cc1ccc(N2C(=O)CSC23C(=O)Nc2ccccc23)cc1` (centres unmarked): -3.77%.
Next, `CCOc1cc(C2C(C#N)=C(N)Oc3[nH]nc(C(C)(C)C)c32)ccc1O` (centres unmarked): -4.28%; `CCOc1ccc(S(=O)(=O)/N=C(/Nc2ccccn2)c2ccccc2)cc1`: -1.87%.
Turning to `Cc1cc(NC(=O)c2sc3nc(N)c(C#N)cc3c2N)ccc1Br`, the “% Inhibition @ 10 uM” value was found to be 7.96%.
Regarding `CCOC(=O)c1c(C)[nH]c(C)c1S(=O)(=O)N1CCCC(C)C1` (centres unmarked), the “% Inhibition @ 10 uM” value is given as 0.708%.
Regarding `CC(C(=O)Nc1cccnc1)C1Sc2ccccc2NC1=O` (centres unmarked), the “% Inhibition @ 10 uM” value was found to be 0.218%.
In the case of `O=C1NC(c2ccccc2F)C(C(=O)c2ccc(Cl)cc2)=C1O` (centres unmarked) it was 1.86%.
Consider `COCCCn1c(CCC(=O)O)ccc1-c1cccs1`, for which the “% Inhibition @ 10 uM” value was -1.15%.
`O=C(CCS(=O)(=O)c1ccc(Br)s1)NC1CCCc2ccccc21` (centres unmarked): the “% Inhibition @ 10 uM” value is given as -4.79%.
In the case of `Cc1ccc(C(=O)N2CCN(C(=O)CSc3nnnn3-c3ccccc3)C2)cc1` it was -5.38%.
As to `COc1ccc2c(CNCCCc3ccccc3)c(C(=O)O)n(Cc3ccccc3F)c2c1`, the “% Inhibition @ 10 uM” value was -0.517%.
Next, `O=C(O)c1ccccc1C(=O)NCCCO`: 1.7%.
As to `COc1ccc(C=O)c(OC)c1`, the “% Inhibition @ 10 uM” value came out at 1.39%.
Turning to `N#Cc1c(NC(=O)C2CC2c2ccccc2)sc2c1CCC2` (centres unmarked), the “% Inhibition @ 10 uM” value was 2.36%.
Regarding `CC1=C(C(=O)OCCOc2ccccc2)C(c2ccccc2Cl)NC(=O)N1C` (centres unmarked), the “% Inhibition @ 10 uM” value came to 2.45%.
In the case of `O=C(CSC1CC(=O)N(c2ccccc2)C1=O)Nc1ccc(Cl)cc1` (centres unmarked), the “% Inhibition @ 10 uM” value is recorded as -0.988%.
As to `Cc1ccc(C)c(OCC(=O)NC(C)(C)C)c1`, the “% Inhibition @ 10 uM” value is -3.23%.
In the case of `O=C1CCC(C(=O)N2CCN(Cc3ccccc3)CC2)N1` (centres unmarked) it was -1.59%; in that of `N#CC1=C(N)Oc2nc(SCc3ccc(Cl)cc3)nc(N)c2C1c1cccnc1` (centres unmarked), -0.222%.
Next, `O=[N+]([O-])c1ccc(Cl)c(CN2CCCCCC2)c1`: -3.79%.
Next, `NC(NC(=O)c1ccccc1)=C1C(=O)NC(=O)NC1=O`: 1.76%.
For the compound `Cc1ccc(CCNC(=O)c2cc(-c3cccnc3)nc3ccccc23)cc1`, the “% Inhibition @ 10 uM” value is -3.58%.
Next, `N#CC1=C(N)Oc2[nH]nc(-c3ccc(-c4ccccc4)cc3)c2C1c1ccccn1` (centres unmarked): 1.57%; `Cc1ccc(C(=O)Nc2cccc(NC(=O)c3ccc(C)o3)c2)o1`: -6.05%.
Consider `Cc1cc(NC(=O)C2=CC(c3cccs3)=NS(=O)(=O)N2C)n(-c2ccccc2)n1`, for which the “% Inhibition @ 10 uM” value is recorded as 0.444%.
For the compound `CCCCC(=O)NC1(C(F)(F)F)C(=O)N(CC(C)C)C2=C1C(=O)CC(C)(C)C2` (centres unmarked), the “% Inhibition @ 10 uM” value was determined as 2.38%.
`COC(=O)C1=C(C)N=C(C)/C(=C(/O)OC)C1C1CC=CCC1` (centres unmarked): the “% Inhibition @ 10 uM” value is -8.19%.
Next, `COc1ccc(OCC(=O)Nc2ccc(S(=O)(=O)Nc3cc(C)cc(C)c3)cc2)cc1`: 10.5%.
As for `COc1ccc(C2C(C(=O)N3CCN(C)CC3)c3cc(OC)c(OC)cc3C(=O)N2C)cc1` (centres unmarked), the “% Inhibition @ 10 uM” value is listed as -2.15%.
Turning to `O=C(O)c1ccccc1-c1ccccc1C(=O)N1CCN(C(c2ccccc2)c2ccccc2)CC1`, the “% Inhibition @ 10 uM” value was -3.27%.
Next, `COc1ccccc1C(=O)NCc1ccccc1`: 4.83%; `O=C(c1ccc(Cl)cc1)n1nc(-c2ccccc2)oc1=O`: 4.88%; `COc1ccc(C)cc1-n1nnc(-c2nc(-c3ccncc3)no2)c1N`: 4.48%.
In the case of `ClC1=CCC2CN(CCN3CCCC3)CC2C1` (centres unmarked) it was 0.51%.
Next, `CC(=O)C1=C(C)NC(=O)NC1c1ccccc1OCc1ccccc1` (centres unmarked): -7.34%; `O=C(NCc1ccc(F)cc1)c1nnc(-c2ccccc2)o1`: -3.9%; `COc1ccc2nc(NC(=O)CSc3nc4cc(Cl)ccc4s3)sc2c1`: 4.54%.
Take `CCOC(=O)C1CC(=O)OC12CCCCC2` (centres unmarked): the “% Inhibition @ 10 uM” value was -2.55%.
Next, `COc1ccccc1-n1nnnc1SCC(=O)NC1CCCC1`: 4.32%.
Regarding `CCc1nn(Cc2ccccc2)c(=O)c2cc3cc(C)ccc3n12`, the “% Inhibition @ 10 uM” value is 3%.
Consider `Cc1cc2ncn(S(=O)(=O)c3ccc(Cl)cc3)c2cc1C`, for which the “% Inhibition @ 10 uM” value is recorded as -0.28%.
Consider `CN1CCN(CCCNC(=O)C2CCCN(S(=O)(=O)N3CCC4(CC3)OCCO4)C2)CC1` (centres unmarked), for which the “% Inhibition @ 10 uM” value is listed as -1.67%.
On to `COc1cc2c(no[n+]2[O-])n2nnnc12`, for which the “% Inhibition @ 10 uM” value is 2.24%.
Next, `COc1cc(-c2nc(C(N)=O)c3nc(O)n(-c4cccc(C)c4)c3n2)cc(Br)c1O`: 0.953%; `O=C(COc1ccc(Cl)cc1)N1CCN(c2ccccn2)CC1`: -0.996%; `Cc1ccccc1-c1nnc(NC(=O)C23CC4CC(CC(C4)C2)C3)s1`: 2.7%.
Next, `CC/N=C1\S/C(=C\c2cn(C(=O)CC)nc2-c2ccc(F)cc2)C(=O)N1CC`: 2.18%; `COc1cc(CNCCc2ccccc2OC)cc(OC)c1`: 0.291%.
In the case of `COc1ccccc1CN1C(=O)CN(C2CCCCC2)C(=O)C1c1ccc(Cl)cc1` (centres unmarked) it was 2.9%; in that of `Cc1ccc(-c2csc(Nc3ccc(Cl)cc3)n2)cc1C`, -3.14%.
In the case of `CCOC(=O)c1sc(-c2ccccc2)nc1O`, the “% Inhibition @ 10 uM” value is listed as 66.9%.
In the case of `CN(C)CCCNc1oc(-c2cccs2)nc1S(=O)(=O)c1ccc(Cl)cc1` it was -3.18%.
Next, `O=c1c2sccc2nc(SCc2cc(=O)n3ccccc3n2)n1Cc1ccccn1`: 2.07%.
Consider `O=C(c1ccc(Cl)cc1)N(C(=O)c1ccc(Cl)cc1)n1cnnc1`, for which the “% Inhibition @ 10 uM” value is given as -0.597%.
As to `CCCc1ccc(OCC(=O)Nc2ccc(C)cc2)cc1`, the “% Inhibition @ 10 uM” value is recorded as -2.62%.
Next, `NC1=C(c2nc3ccccc3s2)C(=O)CN1CCCN1CCOCC1`: -1.64%.
In the case of `CCn1c(C)c(C)c2cc(C(=O)N3CCSCC3)ccc21` it was 4.01% and -2.74%; in that of `Oc1oc(-c2cccc3ccccc23)nc1/C=N/c1cccnc1`, 1.45%.

(Values after PMC6919601, “Identification of Plasmodium dipeptidyl aminopeptidase allosteric inhibitors by high throughput screening” (PLoS ONE, 2019).)
